# Data reported in PubChem BioAssay AID1634 (National Center for Advancing Translational Sciences (NCATS), 2009).
# Out of some 260,000 compounds screened, about 150 (0.058%) were called active. Inconclusive means that the source gave no clear call. Such entries were picked first, then a sample of the others. Calls come from the whole dose curve; as a rule, active = well fitted inhibition curve with a large enough effect; inconclusive = small, poorly fitted or top-dose-only effect; inactive = no such curve, though single readings can be large or run the other way. Potencies of inconclusive entries are left out as doubtful fits.
# Target: Pyruvate kinase PKM (Homo sapiens) (UniProt P14618)
# Assay: qHTS Assay for Inhibitors of Human Muscle isoform 2 Pyruvate Kinase; note: nearly all actives have a fitted effect of over 60% in size;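 for activity change, negative = inhibition: plate controls were uninhibited enzyme wells for no effect and no-enzyme wells for full effect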
# Settings: purified PKM2, ATP generation, Kinase-Glo luminescence; series mostly up to 57.5 µM; activity change, negative = inhibition: at the top concentration
# How it was run: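 Coupled luciferase luminescence (Kinase-Glo) detects ATP generated from 0.1 mM ADP and 0.5 mM PEP in imidazole buffer pH 7.2 with KCl, MgCl2; 1 h at room temperature. Enzyme at intermediate activity; normalized to uninhibited and no-enzyme controls.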
# Potency is the fitted concentration of half-maximal effect; tags give direction and shape of the fitted curve.
# Chain of UniProt P14618 (P14618 whole entry, looked up, canonical isoform): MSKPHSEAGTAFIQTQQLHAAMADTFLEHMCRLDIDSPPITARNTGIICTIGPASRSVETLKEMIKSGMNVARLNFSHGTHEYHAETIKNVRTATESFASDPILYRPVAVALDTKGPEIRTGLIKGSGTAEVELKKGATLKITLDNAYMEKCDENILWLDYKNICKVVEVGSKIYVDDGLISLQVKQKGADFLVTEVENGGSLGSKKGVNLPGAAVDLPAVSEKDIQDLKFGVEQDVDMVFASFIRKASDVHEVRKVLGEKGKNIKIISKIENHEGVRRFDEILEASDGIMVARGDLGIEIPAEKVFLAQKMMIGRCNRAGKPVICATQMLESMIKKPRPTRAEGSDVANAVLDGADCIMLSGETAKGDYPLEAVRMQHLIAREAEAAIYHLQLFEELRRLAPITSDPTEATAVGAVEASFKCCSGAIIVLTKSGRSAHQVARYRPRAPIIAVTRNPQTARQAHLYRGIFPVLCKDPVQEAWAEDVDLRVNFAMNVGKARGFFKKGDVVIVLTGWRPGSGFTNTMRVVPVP
SMILES,Potency,"activity change, negative = inhibition"
O=C(CN1CCSCC1)N/N=C/c1ccc(F)c(F)c1,"inconclusive [falling, single point]",
O=C(/C=C/c1cccs1)NC(=S)NNC(=O)Cc1cccs1,"inconclusive [falling, full curve, poor fit]",
Cc1ccc(NC(=O)c2cc(-c3ccc(C)o3)nc3ccccc23)cc1,,inactive: 47.5%
Cc1ccccc1N=CC1=C(O)c2ccccc2C1=O,"inconclusive [falling, partial curve]",
CCOC(=O)C1CCN(c2nc(N)c3c(N)nc(SCC(=O)O)cc3c2C#N)CC1,,inactive: 65.6%
CC(=O)CSc1nnc(CN2C(=O)CSc3ccc(C(F)(F)F)cc32)n1C,"inconclusive [falling, single point]",
COc1ccc2nc(-c3ccc(N)cc3)[nH]c2c1,"inconclusive [falling, single point]",
Cn1c2ccccc2c(=O)n2c(=O)c3ccccc3cc12,"inconclusive [falling, single point]",
Cc1csc(N/N=C/c2ccccn2)n1,"inconclusive [falling, partial curve]",
O=c1c(Cl)c(NCCCO)cnn1-c1nc2ccccc2[nH]1,"inconclusive [falling, single point]",
COc1cc(/C=C2\C(=O)N(c3ccc(NC(C)=O)cc3)N=C2c2ccccc2)ccc1O,"inconclusive [falling, single point]",
NC(N)=Nc1cc2ccccc2c2ccccc12,"inconclusive [falling, single point]",
COC(=O)c1ccc(N2C(=O)Nc3ccccc3N2O)cc1,"inconclusive [falling, single point]",
N#Cc1c2c(c(Nc3ccc(O)cc3)n3c1nc1ccccc13)CCC2,,inactive: 53.6%
COc1cccc(C(=O)Nc2cccc(OCC(=O)O)c2)c1,"inconclusive [falling, partial curve]",
COc1ccc(/C=N/NC(=O)C[n+]2ccccc2)c(OC)c1,"inconclusive [falling, single point]",
Nc1nc2nc(-c3ccc(F)cc3)cc(C(F)(F)F)n2n1,"inconclusive [falling, single point]",
CC(C)c1cc(C(=O)Nc2cccnc2)no1,"inconclusive [falling, single point]",
Cc1nn(C)c(=O)n1-c1ccc(OCc2ccccc2)cc1,"inconclusive [falling, partial curve, poor fit]",
CCC(CC)c1nnc(NC(=O)c2cccnc2SC)s1,,inactive: 34.2%
